# The campaign covered roughly 420,000 compounds. About 64,000 (15%) were called active. The shares of active, inactive and inconclusive entries below differ from those in the screen. Calls come from the whole dose curve; as a rule, active = well fitted inhibition curve with a large enough effect; inconclusive = small, poorly fitted or top-dose-only effect; inactive = flat fitted curve, though single readings scatter. Potencies of inconclusive entries are left out as doubtful fits.
# Assay: qHTS for Inhibitors of human tyrosyl-DNA phosphodiesterase 1 (TDP1): qHTS in cells in absence of CPT; note: nearly all actives have a fitted effect of over 55% in size
# Conditions: DT40 Tdp1-/- hTDP1 cells, no CPT, ATP luminescence, 48 h; series mostly up to 46.2 µM
# Outline: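 Growth of hTDP1-complemented DT40 Tdp1-knockout cells is measured by ATP luminescence after at least 48 hr compound exposure at 37 °C, with DMSO substituting for the 20 nM CPT used in the parallel screen.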
# Potency is the fitted concentration of half-maximal effect; tags give direction and shape of the fitted curve.
row,Compound,Potency
1,N#CCc1ccc(OCCCN2CCC(C(O)(c3ccccc3)c3ccccc3)CC2)cc1,active: 20.6 µM
2,COc1ccc(C(=O)NC(=S)NCc2cccnc2)cc1OC,"inconclusive [inhibitor, partial curve]"
3,COc1ncc2nc(C)c(=O)n(C)c2n1,inactive
4,Cc1cc(C)n2c(NCc3ccccc3)c(CCc3ccccc3)nc2n1,"inconclusive [inhibitor, single point]"
5,CCCCOc1ccc2c(C)cc(=O)oc2c1OCCCC,active: 25.9 µM
6,CC(OC(=O)c1ccc(NC(=O)CC#N)cc1)C(=O)Nc1ccc(S(=O)(=O)N2CCCC2)cc1 (centres undefined),"inconclusive [inhibitor, single point]"
7,CCn1c(=O)c(C(=O)NCc2ccccn2)c(O)c2ccccc21,"inconclusive [inhibitor, single point]"
8,COCCNc1ccc([N+](=O)[O-])cc1C(=O)NC1CCCc2ccccc21 (centres undefined),"inconclusive [inhibitor, single point]"
9,O=C(NC(c1ccc(Cl)cc1)c1cnccn1)C1CCN(CCCc2ccccc2)CC1 (centres undefined),"inconclusive [inhibitor, single point]"
10,O=C1c2ccccc2C2N1CCCN2C(=O)c1sc2ccccc2c1Cl (centres undefined),active: 16.4 µM
11,O=C(NC1CCS(=O)(=O)C1)c1cc2c(=O)n3ccccc3nc2n1Cc1ccccc1 (centres undefined),"inconclusive [inhibitor, single point]"
12,CCOc1ccc(NC(=O)c2oc3ccccc3c2NC(=O)C2CCCCC2)cc1,"inconclusive [inhibitor, partial curve, poor fit]"
13,O=C(Nc1nc(-c2ccccc2)cs1)C1CCCCN1S(=O)(=O)c1ccc(Cl)cc1 (centres undefined),"inconclusive [inhibitor, single point]"
14,Cc1cccc(C)c1NC(=O)c1nc(S(C)(=O)=O)ncc1N(Cc1ccc(C(C)(C)C)cc1)Cc1ccco1,"inconclusive [inhibitor, single point]"
15,Cc1ccc2cc(C)c3nnc(SCc4ccc(C(=O)O)cc4)n3c2c1C,inactive
16,CCOC(=O)c1ccccc1Nc1nc2ccc(C)cc2n2nnnc12,inactive
17,COc1ccc(-n2nc(C(=O)NCC(=O)N3CCN(Cc4ccc5c(c4)OCO5)CC3)c3ccccc3c2=O)cc1OC,"inconclusive [inhibitor, single point]"
18,CCOC(=O)C(Cc1ccc(NC(=O)/C(=C/c2ccccc2)NC(=O)c2ccccc2)cc1)N1C(=O)c2ccccc2C1=O (centres undefined),active: 5.8 µM
19,CCN1C(=O)CCN(C2CCCC2)c2nc(Nc3ccc(C(=O)NC4CCN(C)CC4)cc3OC)ncc21,active: 7.31 µM

# Source: PubChem BioAssay AID686978 (National Center for Advancing Translational Sciences (NCATS), 2013)
